The other results are listed elsewhere or left out.
The sequences below were run against no compound (DMSO) (assay: log2 fold change of degron read counts, EGFP-low vs EGFP+ sorted cells; higher = lower degron-EGFP level without compound (poor expression or instability)). Conditions: compound: DMSO control; 18 h.
In the case of FTCNICGAMFTQKGNLLRHIKL, the “log2 fold change of degron read counts” value is reported as -0.943. FTCNICGACFTQKGNLLRHIKL was tested, and the “log2 fold change of degron read counts” value was -0.253. FSCSVCGHVFTQKGNLLRHIKL was tested, and the “log2 fold change of degron read counts” value was -0.525. For FRCSVCGHYFTQKGNLLRHIKL, the “log2 fold change of degron read counts” value was 0.0994. For LHCNQCGFMCTQKGNLLRHIKL, the “log2 fold change of degron read counts” value was 0.839. In the case of LRCNQCGFMCTQKGNLLRHIKL, the “log2 fold change of degron read counts” value is reported as 1.07. For FHCPQCGAVFTQKGNLLRHIKL, the “log2 fold change of degron read counts” value was -0.143. In the case of FDCSVCGHCFTQKGNLLRHIKL, the “log2 fold change of degron read counts” value is reported as 0.207. FYCNQCGAIFTQKGNLLRHIKL was tested, and the “log2 fold change of degron read counts” value was 1.02. For FACNQCGHMFTQKGNLLRHIKL, the “log2 fold change of degron read counts” value was 0.295. In the case of FACPICGHIFTQKGNLLRHIKL, the “log2 fold change of degron read counts” value is reported as 0.49. With FVCNQCGAFFTQKGNLLRHIKL the “log2 fold change of degron read counts” value was -0.221. FNCPICGHCFTQKGNLLRHIKL was tested, and the “log2 fold change of degron read counts” value was -0.638. For FVCNVCGAAFTQKGNLLRHIKL, the “log2 fold change of degron read counts” value was 0.159.

Reference: the supplement of paper PMC12645437, “Orthogonal IMiD-Degron Pairs Induce Selective Protein Degradation in Cells” (ACS Chemical Biology, 2025)
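Further: jurkat cells carrying a lentiviral library of mutant zinc finger degrons fused to EGFP plus mCherry, mCherry+ cells FACS sorted, degron abundance counted by next-generation sequencing.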
